From publication PMC5571198
These are yes or no findings as the source states them, for the method shown. In cells and extracts the contact can be indirect. Some results given as binding are weak or reduced against the parent protein; the word gives no strength. For some assays here: Tags and fused reporters may be left off the sequences shown.

Protein sequences, listed by entry. Tags and fused reporters are not part of them.
UniProt Q8VDS3: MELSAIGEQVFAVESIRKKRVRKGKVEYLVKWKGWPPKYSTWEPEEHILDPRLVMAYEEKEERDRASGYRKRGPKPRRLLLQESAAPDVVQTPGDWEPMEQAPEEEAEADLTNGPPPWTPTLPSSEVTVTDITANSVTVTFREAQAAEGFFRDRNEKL

T1: mouse USP26 in mouse ESCs (mouse) (UniProt Q99MX1)
T1 sequence: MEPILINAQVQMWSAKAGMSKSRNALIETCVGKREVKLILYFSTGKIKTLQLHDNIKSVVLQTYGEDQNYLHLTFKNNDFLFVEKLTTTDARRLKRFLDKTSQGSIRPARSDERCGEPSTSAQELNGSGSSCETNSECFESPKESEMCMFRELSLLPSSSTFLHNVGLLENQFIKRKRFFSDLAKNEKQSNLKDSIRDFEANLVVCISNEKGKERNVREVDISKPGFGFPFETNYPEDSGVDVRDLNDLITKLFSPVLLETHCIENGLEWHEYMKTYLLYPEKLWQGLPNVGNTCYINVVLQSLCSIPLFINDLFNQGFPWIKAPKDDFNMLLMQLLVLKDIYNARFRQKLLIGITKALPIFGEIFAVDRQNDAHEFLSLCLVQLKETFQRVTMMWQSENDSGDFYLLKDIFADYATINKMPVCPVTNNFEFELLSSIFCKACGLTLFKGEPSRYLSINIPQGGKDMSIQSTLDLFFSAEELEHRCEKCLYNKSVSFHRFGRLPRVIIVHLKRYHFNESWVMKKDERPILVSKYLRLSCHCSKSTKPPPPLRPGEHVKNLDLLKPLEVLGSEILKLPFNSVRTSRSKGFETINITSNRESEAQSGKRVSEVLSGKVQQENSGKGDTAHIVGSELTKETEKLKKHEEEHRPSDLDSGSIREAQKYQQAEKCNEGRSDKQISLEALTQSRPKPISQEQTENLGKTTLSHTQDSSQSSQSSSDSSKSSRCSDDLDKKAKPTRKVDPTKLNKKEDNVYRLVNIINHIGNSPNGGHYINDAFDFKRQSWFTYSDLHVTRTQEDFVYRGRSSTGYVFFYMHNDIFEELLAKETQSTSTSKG

T2: FLAG-tagged human (h) USP26 (ubiquitin-specific protease 26) (human) (UniProt Q9BXU7)
T2 sequence: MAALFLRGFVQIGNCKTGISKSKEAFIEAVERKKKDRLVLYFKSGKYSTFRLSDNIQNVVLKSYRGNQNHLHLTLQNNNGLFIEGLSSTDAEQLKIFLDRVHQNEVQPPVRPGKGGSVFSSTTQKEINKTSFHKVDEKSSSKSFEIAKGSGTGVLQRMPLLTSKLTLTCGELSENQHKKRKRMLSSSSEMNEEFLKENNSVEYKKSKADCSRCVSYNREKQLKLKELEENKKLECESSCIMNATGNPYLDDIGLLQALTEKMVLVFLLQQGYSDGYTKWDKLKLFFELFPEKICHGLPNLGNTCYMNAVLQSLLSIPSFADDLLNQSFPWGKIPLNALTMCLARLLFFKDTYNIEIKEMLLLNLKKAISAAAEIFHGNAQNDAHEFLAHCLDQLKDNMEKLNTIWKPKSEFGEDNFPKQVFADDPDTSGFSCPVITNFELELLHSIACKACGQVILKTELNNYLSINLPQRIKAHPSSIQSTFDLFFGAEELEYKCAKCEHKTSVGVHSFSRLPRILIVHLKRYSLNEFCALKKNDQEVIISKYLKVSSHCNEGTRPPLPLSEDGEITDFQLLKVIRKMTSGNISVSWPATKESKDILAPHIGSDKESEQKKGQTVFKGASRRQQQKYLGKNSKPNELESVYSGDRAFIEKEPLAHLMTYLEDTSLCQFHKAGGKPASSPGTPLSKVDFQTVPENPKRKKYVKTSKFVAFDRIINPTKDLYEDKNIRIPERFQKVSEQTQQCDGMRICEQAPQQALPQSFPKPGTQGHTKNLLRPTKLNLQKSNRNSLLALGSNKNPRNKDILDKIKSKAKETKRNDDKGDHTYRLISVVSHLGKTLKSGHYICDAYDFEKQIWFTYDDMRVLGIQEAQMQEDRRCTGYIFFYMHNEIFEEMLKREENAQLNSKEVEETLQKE


Legend:
[1] = target: T1, mouse USP26 in mouse ESCs (mouse); assay: co-IP; mouse ESCs infected with or without mouse USP26 lentivirus, extracts harvested at different time points (differentiating ESCs); IP with anti-USP26 antibody, western blot with specific antibodies
[2] = target: T2, FLAG-tagged human (h) USP26 (ubiquitin-specific protease 26) (human); assay: co-IP; RING1A knockout 293T cells transfected with FLAG-USP26; IP with anti-FLAG antibody, western blot with specific antibodies for the endogenous proteins

Row | Molecule | binding [1] | binding [2]
1 | CBX4 (endogenous in mouse ESCs) (protein, UniProt O55187 1-551) MELPAVGEHVFAVESIEKKRIRKGRVEYLVKWRGWSPKYNTWEPEENILDPRLLIAFQNRERQEQLMGYRKRGPKPKPLVVQVPTFARRSNVLTGLQDSSADNRAKLELGTQGKGQGHQYELNSKKHHQYQPHSKERSGKPPPPGKSGKYYYQLNSKKHHPYQPDPKMYDLQYQGGHKEAPSPTCPDLGTKSHPPDKWAHGAAAKGYLGAVKPLGGGAGAPGKGSEKGPPNGMTPAPKEAVTGNGIGGKMKIVKNKNKNGRIVIVMSKYMENGMQAVKIKSGEAAEGEARSPSHKKRAAEERHPQGDRTFKKAAGASEEKKAEVPCKRREEEALVSGDAQPQDLGSRKLSPTKEAFGEQPLQLTTKPDLLAWDPARSSHPPAHHHHHHHHHHHHHTVGLNLSHARKRCLSETHGEREPCKKRLTARSISTPTCLGGSPVSEHPANVSPTAASLPQPEVILLDSDLDEPIDLRCVKMRSDAGEPPSTLQVKPEAPAVAAVVAPAPASEKPPAEAQEEPVEPLSEFKPFFGNIIITDVTANCLTVTFKEYVTV | binds | 
2 | CBX4 (endogenous in 293T cells) (protein, UniProt O00257 1-560) MELPAVGEHVFAVESIEKKRIRKGRVEYLVKWRGWSPKYNTWEPEENILDPRLLIAFQNRERQEQLMGYRKRGPKPKPLVVQVPTFARRSNVLTGLQDSSTDNRAKLDLGAQGKGQGHQYELNSKKHHQYQPHSKERAGKPPPPGKSGKYYYQLNSKKHHPYQPDPKMYDLQYQGGHKEAPSPTCPDLGAKSHPPDKWAQGAGAKGYLGAVKPLAGAAGAPGKGSEKGPPNGMMPAPKEAVTGNGIGGKMKIVKNKNKNGRIVIVMSKYMENGMQAVKIKSGEVAEGEARSPSHKKRAADERHPPADRTFKKAAGAEEKKVEAPPKRREEEVSGVSDPQPQDAGSRKLSPTKEAFGEQPLQLTTKPDLLAWDPARNTHPPSHHPHPHPHHHHHHHHHHHHAVGLNLSHVRKRCLSETHGEREPCKKRLTARSISTPTCLGGSPAAERPADLPPAAALPQPEVILLDSDLDEPIDLRCVKTRSEAGEPPSSLQVKPETPASAAVAVAAAAAPTTTAEKPPAEAQDEPAESLSEFKPFFGNIIITDVTANCLTVTFKEYVTV |  | binds

Second part, the molecule after the results:

Row | binding [1] | binding [2] | Molecule
3 | no binding |  | CBX7 (endogenous in mouse ESCs) (from UniProt Q8VDS3 1-158)
4 |  | binds | CBX6 (endogenous in 293T cells) (protein, UniProt O95503 1-412) MELSAVGERVFAAESIIKRRIRKGRIEYLVKWKGWAIKYSTWEPEENILDSRLIAAFEQKERERELYGPKKRGPKPKTFLLKARAQAEALRISDVHFSVKPSASASSPKLHSSAAVHRLKKDIRRCHRMSRRPLPRPDPQGGSPGLRPPISPFSETVRIINRKVKPREPKRNRIILNLKVIDKGAGGGGAGQGAGALARPKVPSRNRVIGKSKKFSESVLRTQIRHMKFGAFALYKPPPAPLVAPSPGKAEASAPGPGLLLAAPAAPYDARSSGSSGCPSPTPQSSDPDDTPPKLLPETVSPSAPSWREPEVLDLSLPPESAATSKRAPPEVTAAAGPAPPTAPEPAGASSEPEAGDWRPEMSPCSNVVVTDVTSNLLTVTIKEFCNPEDFEKVAAGVAGAAGGGGSIGASK
5 | binds |  | CBX6 (endogenous in mouse ESCs) (protein, UniProt Q9DBY5 1-414) MELSAVGERVFAAESIIKRRIRKGRIEYLVKWKGWAIKYSTWEPEENILDSRLIAAFEQKERERELYGPKKRGPKPKTFLLKARAQAEALRISDVHFSVKPSASASSPKLHSSAAVHRLKKDIRRCHRMSRRPLPRPDPQGGSPGLRPPISPFSETVRIINRKVKPREPKRNRIILNLKVIDKGPGGGSTAQGTGALARPKVPSRNRVIGKSKKFSESMLRTQIRHMKFGTFALYKPPPAPLAPSTAGKADVASSGPGLLLATPAAAPFDAHSSSSSGCPSPTLQSSDPDDAPPKLLPETLSRSVPNWRESEVLDLSIPPEAAATGQRVPPDVTGAADQALHTALEPTGAGSSEPEAGDWRPEMSPCSNVVVTDVTSNLLTVTIKEFCSPEDFEKVAAGVAGATGGGGGTGPSK
